In PubChem BioAssay AID1745853 (National Center for Advancing Translational Sciences (NCATS), 2022) one finds activity change, negative = inhibition data, which are given here for 15 compounds.

What all share (assay): Primary Screen for Target Class Profiling of Small Molecule Inhibitors of Methyltransferases
Experiment [1] has as its target Glycine N-methyltransferase (Homo sapiens) (UniProt Q14749). The settings on record: purified enzyme, MTase-Glo SAH luminescence; measured here: GNMT inhibition; at 40 µM; stronger effect = lower value. The text has this:
(§1) PI: Matthew D. Hall Ph.D. and Quinlin M. Hanson Ph.D.
(§2) National Center for Advancing Translational Sciences (NCATS)
(§3) National Institute of Health (NIH), Rockville, MD
(§4) Target class profiling (TCP) is a chemical biology approach amenable to investigating understudied biological targets. TCP is achieved by developing a generalizable assay platform and applying it to screen a curated set of compound libraries against representative members of a target class. Small molecule methyltransferases (SMMTase) are a subclass of methyltransferase that act on metabolites to modulate signaling pathways, metabolize xenobiotics, or balance the available methyl pool. We screened four curated libraries totaling 27,574 unique compounds against the SMMTases nicotinamide N-methyltransferase (NNMT), phenylethanolamine N-methyltransferase (PNMT), histamine N-methyltransferase (HNMT), glycine N-methyltransferase (GNMT), catechol O-methyltransferase (COMT), and guanidinoacetate N-methyltransferase (GAMT). The data generated by this TCP can be leveraged for informed tool molecule development. For example, in the associated publication we identified a chemotype of HNMT-selective inhibitors. Additionally, we identified a putative SMMTase-selective inhibitor with potential as a tool molecule for studying broader methyltransferase biology.
(§5) High-through put screening assays were developed at the National Center for Advancing Translational Science (NCATS) for the enzymes NNMT, PNMT, HNMT, GNMT, COMT, and GAMT. Enzymatic activity was measured as a function of SAM cofactor conversion using the MTase Glo kit (Promega) for all enzymes. All assays were performed in 1536-well format with substrates and SAM concentrations at KM values. Enzyme concentration and assay timing were optimized for 10-20% SAM conversion. Initial screening of 27,574 compounds was done as single-point assays using the highest compound concentration (40 uM). […] These compounds were replated in 11-point dose response and assayed against NNMT, PNMT, HNMT, GNMT, COMT, GAMT, and a counter-assay. The IC50 and efficacy (maximal response) values were determined for each dose-response curve. These values are also accounted for in the area under the curve (AUC) values.
(§6) PROTOCOL TABLE (as described by Inglese J, Shamu CE and Guy RK. 2007)
(§7) SEQUENCE No. (e.g., 1, 2, 3, etc.); […] (e.g., Cells, Incubation, Reagent, etc.); VALUE; DESCRIPTION.
(§8) 1; Reagent; 2 uL; SMMTase Enzyme (2x) in reaction buffer, columns 1- 48.
(§9) 2; Reagent; 1 uL; SAM (4x) in reaction buffer, columns 1-48.
(§10) 3; Controls; 23 nL; DMSO in column 4; sinefungin in DMSO (0 uM - 40 uM) in 7-point 1:2 dilution series (n = 2) in column 2.
(§11) 4; Compounds; 23 nL; Columns 5-48.
(§12) 5; Reagent; 1 uL; Substrate (4x) in reaction buffer, columns 2-48.
(§13) 6; Time; 20-30 min; Incubation.
(§14) 7; Reagent; 1 uL; MTase-Glo reagent (5X), columns 1-48.
(§15) 8; Time; 30 min; Incubation.
(§16) 9; Reagent; 5 uL; MTase-Glo Detection reagent, columns 1-48.
(§17) 10; Time; 30 min; Incubation, luminescence evolution.
(§18) 11; Detection; Luminescence; ViewLux uHTS Microplate Imager (PerkinElmer).
(§19) NOTES (numbers refer to Sequence numbers above)
(§20) 1, 2, 5. White Medium Binding Greiner 1536-well plates (Cat #789175-F, Greiner Bio-One, Monroe, NC); Reaction buffer: 50 mM Tris, pH 8.0, 3 mM MgCl2, 1 mM EDTA, 50 mM NaCl, 1 mM DTT, and 0.1 mg/mL BSA. Evaporation was prevented by covering assay plates with metal lids containing holes to allow gas diffusion.
(§21) 1. Six SMMTase were profiled: HNMT, GNMT, PNMT, COMT, NNMT, GAMT
(§22) 5. The corresponding substrate was used for each enzyme: HNMT - 5.3 uM Histamine; GNMT - >500 uM Glycine; PNMT - 16.2 uM Norephinephrine; COMT - 13.7 uM Norephinephrine; NNMT - 3.8 uM Nicotinamide; GAMT - 2.5 uM Guanidinoacetate.6, 8, 10. Room temperature
(§23) 6. Final reaction conditions: 10 nM COMT, 5 uM SAM, 15 uM norepinephrine, 50 mM Tris, pH 8.0, 3 mM MgCl2, 1 mM EDTA, 50 mM NaCl, 1 mM DTT, and 0.1 mg/mL BSA; refer to tables 2 and S1 for specific timing.
8. […]

The target of experiment [2] is Guanidinoacetate N-methyltransferase (Homo sapiens) (UniProt Q14353). As to conditions: purified enzyme, MTase-Glo SAH luminescence; measured here: GAMT inhibition; at 40 µM; stronger effect = lower value.
From the text: as §1, §2, §3, §4, §5, §6, §7, §8, §9, §10, §11, §12, §13, §14, §15, §16, §17, §18, §19, §20, §21, §22, §23
8. […]

In experiment [3] the target is Histamine N-methyltransferase (Homo sapiens) (UniProt P50135). As to conditions: purified enzyme, MTase-Glo SAH luminescence; measured here: HNMT inhibition; at 40 µM; stronger effect = lower value.
From the text: as §1, §2, §3, §4, §5, §6, §7, §8, §9, §10, §11, §12, §13, §14, §15, §16, §17, §18, §19, §20, §21, §22, §23
8. […]

Experiment [4] has as its target Nicotinamide N-methyltransferase (Homo sapiens) (UniProt P40261). The settings on record: purified enzyme, MTase-Glo SAH luminescence; measured here: NNMT inhibition; at 40 µM; stronger effect = lower value.
From the text: as §1, §2, §3, §4, §5, §6, §7, §8, §9, §10, §11, §12, §13, §14, §15, §16, §17, §18, §19, §20, §21, §22, §23
8. […]

Experiment [5] addresses Phenylethanolamine N-methyltransferase (Homo sapiens) (UniProt P11086). As to conditions: purified enzyme, MTase-Glo SAH luminescence; measured here: PNMT inhibition; at 40 µM; stronger effect = lower value.
From the text: as §1, §2, §3, §4, §5, §6, §7, §8, §9, §10, §11, §12, §13, §14, §15, §16, §17, §18, §19, §20, §21, §22, §23
8. […]

The structures appear in SMILES notation. Values joined by “and” are separate entries in the source; they are usually repeats but may differ in a detail not shown here. Equal values may be shown once. The list shows a part of the results. These are further read-outs of the screen, such as a control signal, another cell line or another target. No call is given for them.
% is scaled to controls: 0 for no effect and ±100 for the full control effect.

On to `CCCn1c(=O)c2cc(Cl)ccc2n2c(SCC(=O)Nc3ccc(C)cc3C)nnc12`, for which the activity change, negative = inhibition in experiment [1] was -1.73%; in experiment [2], 0%; in experiment [3] it was 7.06%; in experiment [4] it was 3.88%; in experiment [5], 5.02%.
The like results for `CC(Cc1ccco1)NC(=O)c1cc2n(n1)CCCN(Cc1ccccc1)C2=O` (stereo unspecified) were, in that order, -8.44%, 1.06%, 1%, -3.03% and 2.72%.
The like results for `Cc1ccc(CCNC(=O)CN(C)S(=O)(=O)c2ccc3[nH]c4c(c3c2)CCCC4)cc1` were, in that order, -1.3%, 4.21%, -2.9%, -4.09% and 0.437%.
On the same counts, the results for `NC(=O)c1ccc(O[C@@H]2COCC[C@H]2NC(=O)Cc2ccc(O)cc2)cc1` are -2.69%, -6.54%, -2.44%, -4.23% and -5.54%.
Consider `O=S(=O)(c1ccccc1)N1CCC(Cc2ccc(CN3CCOCC3)cc2)CC1`, for which the activity change, negative = inhibition in experiment [1] is -5.08%; in experiment [2] it was 0%; in experiment [3] it was 5.17%; in experiment [4], -8.64%; in experiment [5], 0.415%.
On the same counts, the results for `Cc1cc(C(=O)Cn2cc(C#N)ccc2=O)c(C)n1Cc1ccccc1` are 4.51%, 0.848%, 4.81%, -11.5% and -4.45%.
In the case of `Cc1ccc(NC(=O)Cn2nc3n(C)c(=O)c4ccc(C(=O)NC(C)C)cc4n3c2=O)cc1`, the activity change, negative = inhibition in experiment [1] came out at 5.96%; in experiment [2], 5.48%; in experiment [3] it was 5.07%; in experiment [4], 1.44%; in experiment [5], 3.92%.
The like results for `CC1(C(=O)NC2CCCCC2)Cc2ccccc2C(=O)N1CCN1CCOCC1` (stereo unspecified) were, in that order, -1.06%, 4.2%, 4.94%, 10.8% and -2.49%.
With `CCCOCC(=O)N1CCCC(c2cc(N3CCCC3)nc(C)n2)C1` (stereo unspecified), the activity change, negative = inhibition in experiment [1] was -4.14%; in experiment [2], -2.36%; in experiment [3], -2.04%; in experiment [4] it was -4.87%; in experiment [5], -1.3%.
Turning to `Cc1ccccc1N1CCCN(Cc2ccccc2OCCO)CC1`, the activity change, negative = inhibition in experiment [1] is -5.76%; in experiment [2], -9.87%; in experiment [3] it was -37%; in experiment [4] it was -6.36%; in experiment [5], -12.9%.
On the same counts, the results for `NC(=O)C1(N2CCCCC2)CCN(c2nc3c(S(=O)(=O)c4ccccc4)nnn3c3ccccc23)CC1` are -9.32%, 4.91%, -48.2%, -10.3% and -3.37%.
`O=C1Cc2cc(CCN3CCN(c4nsc5ccccc45)CC3)c(Cl)cc2N1`: the activity change, negative = inhibition in experiment [1] was -13.9% and -8.03%; in experiment [2], 4.27% and -3.1%; in experiment [3] it was -2.14% and 1.65%; in experiment [4] it was -10.3% and -30.4%; in experiment [5] it was -0.646% and -15.5%.
For `CC[C@@H](C)[C@H]1O[C@]2(CC[C@@H]1C)C[C@@H]1C[C@@H](C/C=C(\C)[C@@H](O[C@H]3C[C@H](OC)[C@@H](O[C@H]4C[C@H](OC)[C@@H](O)[C@H](C)O4)[C@H](C)O3)[C@@H](C)/C=C/C=C3\CO[C@@H]4[C@H](O)C(C)=C[C@@H](C(=O)O1)[C@]34O)O2`, the activity change, negative = inhibition in experiment [2] is 2.66%; in experiment [4], -9.9%; in experiment [5] it was 8.65%.
As for `C[S+](=O)([O-])N1CCC(c2nnc3n2C(C(=O)NC2CCCCC2)CC3)CC1` (stereo unspecified), the activity change, negative = inhibition in experiment [1] was -6.96%; in experiment [2], -6.32%; in experiment [3], -5.23%; in experiment [4] it was -12.7%; in experiment [5] it was -7.43%.
Take `N=c1sc2c(n1CC(=O)c1ccc([N+](=O)[O-])cc1)CCCC2`: the activity change, negative = inhibition in experiment [2] is -10.4%; in experiment [4], -15.9%; in experiment [5], -4.52%.
